In all, about 33,000 sequences were measured (“E-score (-0.5 to 0.5)”: median about -0.013, highest 2% from about 0.3 on). The list shows a part of the results.
These sequences were tested against T1, Msn1 (UniProt P22148) (assay: PBM E-score (8-mer binding enrichment) (E-score (-0.5 to 0.5)); higher = stronger / more preferred TF binding; most listed sequences are background and not binding sites). Conditions: protein concentration: 200 nM; construct: GST-full length.
T1 sequence: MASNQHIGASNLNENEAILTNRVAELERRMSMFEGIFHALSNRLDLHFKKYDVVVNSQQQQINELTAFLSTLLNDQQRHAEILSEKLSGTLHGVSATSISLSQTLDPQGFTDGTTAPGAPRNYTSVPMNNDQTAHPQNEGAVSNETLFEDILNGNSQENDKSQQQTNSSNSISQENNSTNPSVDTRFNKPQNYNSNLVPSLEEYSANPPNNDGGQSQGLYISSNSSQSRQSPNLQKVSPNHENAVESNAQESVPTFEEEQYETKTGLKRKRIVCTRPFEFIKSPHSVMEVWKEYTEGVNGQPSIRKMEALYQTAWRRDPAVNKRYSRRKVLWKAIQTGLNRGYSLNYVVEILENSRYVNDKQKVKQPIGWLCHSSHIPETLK
How it was run: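 The E-score, a modified Wilcoxon-Mann-Whitney statistic, was computed by the Universal PBM Analysis Suite for every ungapped eight-base word pooled with its reverse complement. Scans behind it were normalised with masliner after bound GST-tagged yeast transcription factors were detected with fluorescent anti-GST. The proteins, at about 100-200 nM, had been applied to universal all-10-mer Agilent arrays made double-stranded by primer extension.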

Row | Sequence | PBM E-score
1 | CTTCATGC | -0.141
2 | ATGATTCC | 0.0976
3 | GAGTCGAA | -0.0105
4 | TATGCACA | 0.00087
5 | GGCGCGTA | -0.0946
6 | GATATTCC | 0.0975
7 | CGCATATA | 0.0294
8 | CCCCCCTA | -0.341
9 | TCCTAGGA | 0.0899
10 | ACTTTACC | 0.11
11 | TGGGATAA | 0.0504
12 | ATCGGTCC | -0.0513
13 | CCTGATAG | -0.222
14 | AGAGCTCG | 0.006
15 | GTCTCGGA | 0.244
16 | AGGCTTGC | -0.255
17 | AGTCAAAA | 0.0874
18 | CTTCAGGA | 0.0333
19 | ACACTTCA | 0.0896
20 | CCAGCATA | -0.125
21 | AGGAGAAC | -0.165
22 | CGTTGTAC | 0.173
23 | ATGGAGTA | -0.109
24 | ATCCAGCA | -0.118
25 | GCGTATAC | -0.0134

Row | Sequence | PBM E-score
26 | GGTCAGCA | -0.107
27 | CCGCATAC | 0.0184
28 | GACGCGGA | 0.0749
29 | CAACGTCG | -0.0696
30 | ATCCCATG | -0.156
31 | ATGTGCTC | 0.0447
32 | CTCAAGGC | -0.171
33 | ATACACTC | 0.064
34 | GTGAGGGA | -0.164
35 | TAAGCACA | 0.118
36 | AATTCTGA | 0.112
37 | GTCCTCAA | 0.267
38 | CGGGTCCC | -0.301
39 | GGTTTGGA | 0.00891
40 | ACAGCCGG | 0.00237
41 | ACCAAGCA | 0.0329
42 | CATATTAA | 0.32
43 | CCATTTTC | 0.136
44 | AGTTATGC | 0.0335
45 | ACCGCCTA | -0.0385
46 | ACAGCACC | -0.146
47 | ACTGTTAC | -0.0545
48 | AAGCTCGA | 0.102
49 | ATGTCTGA | 0.425
50 | CAGTGAAA | 0.0564

Row | Sequence | PBM E-score
51 | AGTTATAA | 0.0713
52 | ATGTCGTG | 0.337
53 | CGCATGTA | 0.0633
54 | CGTACAAG | 0.0872
55 | CTAATTCA | 0.00319
56 | CTCCTTAC | -0.115
57 | AGCGTCCT | -0.081
58 | AGTTCCGC | 0.0164
59 | ACGAGGAT | -0.178
60 | GTTTTTCA | 0.109
61 | ACATTAAC | 0.254
62 | CCCTCTTC | -0.288
63 | ATTCCCAA | 0.0317
64 | GCGGGCCC | -0.236
65 | GGTCCTTA | 0.0291
66 | AGATTCCG | 0.151
67 | ACTGCTCA | -0.0561
68 | ATCGCATA | 0.0796
69 | GAAAACCA | 0.00945
70 | ATGGGATA | 0.0634
71 | ATCCAAAT | 0.0126
72 | TGACTCAA | 0.0492
73 | ATTCAAGA | 0.0718
74 | GACGAACA | 0.0827
75 | AGAGAGCT | -0.241

Row | Sequence | PBM E-score
76 | CCAGGCCG | 0.0204
77 | CGCACATA | -0.196
78 | CAAAAGGA | 0.261
79 | AGTTGGGG | -0.0303
80 | GTCCTCAC | 0.263
81 | AAGTACAC | 0.192
82 | CTCGTCTA | -0.023
83 | AACGGCTA | -0.0678
84 | AAGCAATA | -0.0415
85 | ATAGGCCC | -0.2
86 | CGCTAGTC | -0.0714
87 | GGCAGAAA | 0.213
88 | GAATAGCA | 0.0221
89 | GTAGTTTA | 0.1
90 | CCTTTTTC | -0.113
91 | AGACAGTG | 0.00899
92 | AGAATTCT | 0.242
93 | CCTGTCGC | 0.0187
94 | ATGTCTGG | 0.323
95 | AGGGAATG | -0.0775
96 | AGACTTTA | 0.0848
97 | GAAATCTA | -0.139
98 | AGCACAGA | 0.055
99 | ACCTAACA | 0.0355
100 | CAAGGACG | 0.148

Row | Sequence | PBM E-score
101 | ACTTGAGG | -0.0853
102 | GCTGCACA | -0.161
103 | GAAACGAC | 0.088
104 | ACCCCGTA | 0.0488
105 | AAAAAAAC | 0.0568
106 | GACTGTGC | -0.137
107 | CCCCTGCG | -0.308
108 | CCGACCCA | -0.0978
109 | CGCCGGCA | -0.094
110 | CAAAGGCC | -0.119
111 | ACGGGCCA | -0.188
112 | ACTGAACG | -0.0612
113 | GTGACAGA | 0.161
114 | CTTGAGGC | -0.148
115 | AACAGTAC | -0.0277
116 | ACGCTGGC | -0.118
117 | AAGTACGC | -0.0577
118 | ATTGTACA | 0.242
119 | TTATGCAA | -0.0731
120 | CAGATATA | 0.106
121 | CACGCTCC | -0.282
122 | CGAATCCG | 0.128
123 | CCCCCCCG | -0.379
124 | ATTCGCGA | 0.0755
125 | ATAGTCAT | 0.0623

Row | Sequence | PBM E-score
126 | AAAAGCCT | -0.221
127 | AGCCTTTC | -0.0837
128 | GAAGTCAA | -0.105
129 | ATTCAACA | -0.0659
130 | AATCCTTA | -0.134
131 | CCTTTAAC | 0.125
132 | AGCCTCCC | -0.265
133 | ATACACTA | 0.183
134 | CCCGGGCC | -0.127
135 | ATGTGGCG | -0.0986
136 | GTGTATAA | -0.126
137 | GCCCTCGC | -0.139
138 | CCGACTGA | -0.00771
139 | CACACTCA | 0.102
140 | CCGACGCC | -0.0386
141 | AATAGGGT | 0.0002
142 | CCTGATTA | 0.00881
143 | AGATCGGA | 0.254
144 | ACAGTACA | 0.189
145 | AATTGTCC | 0.488
146 | ACACAAAG | 0.0861
147 | CAAATCAA | 0.126
148 | CCGCACAC | -0.0527
149 | CAAGTATG | 0.174
150 | TCGAGCGA | 0.121

Row | Sequence | PBM E-score
151 | GAAACGGA | 0.202
152 | GGCCACAA | -0.00651
153 | CGAAGCCC | -0.167
154 | AAGCAGTG | -0.137
155 | CGCAGGCC | 0.0695
156 | CGCGCGTC | 0.242
157 | CGCAGCGA | 0.0945
158 | ATATGAGG | -0.0544
159 | ATTGTCGC | 0.344
160 | CCTCTATA | -0.229
161 | ACGAAAAA | 0.23
162 | CCCCGCAG | -0.105
163 | GGGTCCCA | -0.216
164 | CCGGCACG | -0.0469
165 | AAAGCTAG | 0.0353
166 | CTCGAGGC | -0.143
167 | CGGCTAAG | 0.0144
168 | ACTGTATG | 0.0365
169 | CGGCCAGA | 0.0515
170 | ACGGCTAG | -0.218
171 | GGTGACTA | -0.074
172 | AACCCATT | 0.13
